These results are taken from patent publication EP4674438A1, “ANTIBODY-DRUG CONJUGATE CONTAINING ANTI-CD138 ANTIBODY” (priority 2023, dated 2024).

Where only a bound is given, the exact number is not on record here.

For data set [1], the system named is human T cell leukemia Jurkat (CD138-negative). Nature of the data set: Cytotoxicity mediated by ADC, CellTiter-Glo 2.0 luminescent cell viability assay, Jurkat (Example 6). To be noted: 37°C, 5 days. The data set is classed as cell-based. As for the experimental part: ADC1 to ADC14 were prepared in accordance with the procedure described in Example 4, and the cytotoxicity thereof against the pancreatic cancer cell line Capan-1 and the human T cell leukemia Jurkat was evaluated by the CellTiter-Glo 2.0 luminescent cell viability assay (Promega). The cells were seeded at 1,000 cells/well on a 96-well plate, the ADCs were added, and culture was then performed at 37°C for 5 days. Thereafter, the reagent for CellTiter-Glo 2.0 luminescent cell viability assay was added. The relative luminescence was measured using the EnSpire Multimode Plate Reader (PerkinElmer), the data were analyzed using the XLfit software (IDBS), and IC50 for each cancer cell line was determined (Table 6). […] Such cytotoxicity is considered to be induced by the antigen-independent mechanism. […]

The subject of data set [2] is pancreatic cancer cell line (Capan-1). Put plainly: Anti-tumor effects of ADC in vivo, Capan-1 cancer-carrying nude mice (Example 8). To be noted: 1 mg/kg intravenously once a week; compared with the control group; Figure 5 A. As for the experimental part:
Cancer-carrying animal models were prepared using the cells of the pancreatic cancer cell line (Capan-1). At the outset, the cells were prepared and inoculated subcutaneously into the right chest of nude mice (1 × 10^7 cells/100 μl). When the volume of the inoculated tumor was increased to approximately 100 to 200 mm^3, the nude mice were randomly divided into a control group (PBS administration) and test groups, and […]13, and ADC14 were injected intravenously thereinto at 1 mg/kg. Administration was performed once a week. The tumor volume was measured two times a week, and the tumor volume was calculated in accordance with the equation indicated below: Tumor volume (mm^3) = (longaxis×shortaxis^2)/2 [formula]

Data set [3] is described as follows: ADC stability: denaturation midpoint and aggregation initiation temperature (UNcle). The data set is classed as physicochemical. Conditions: Dulbecco's PBS pH 7.4, n = 3. On the procedure:
The concentration of ADC15 was adjusted to approximately 2.71 mg/ml with phosphate-buffered saline (Dulbecco's PBS; pH 7.4), that of ADC16 was adjusted to 7.91 mg/ml therewith, and that of ADC17 was adjusted to 5.61 mg/ml therewith. The denaturation midpoint temperature, the aggregation initiation temperature, and the particle size distribution of the antibody solutions were determined using a protein physical property evaluator UNcle (UNCHAINED LABS). Specifically, the denaturation midpoint temperature and the aggregation initiation temperature were determined by simultaneously performing fluorescent spectral measurement and static light scatter measurement while raising the temperature of the antibodies from 25°C to 95°C by 1°C every minute. On the basis of the results of the fluorescent spectral measurement, the midpoint temperature of peak shift; i.e., the denaturation midpoint temperature, was determined (n = 3) using the phenomenon that the peak center of the fluorescent spectra of amino acids internalized in the antibody would shift upon antibody denaturation. On the basis of the results of the static light scatter measurement, the temperature at which the scattered light at 266 nm becomes intensified; i.e., the aggregation initiation temperature, was determined (n = 3) using the phenomenon that the scattering intensity would be increased upon aggregation.

Data set [4] is described as follows: ADC stability: aggregation on storage at 50°C, dynamic light scattering. The data set is classed as physicochemical. Conditions: storage at 50°C for 48 hours, Dulbecco's PBS pH 7.4; n = 3. As for the experimental part: With the use of ADC15 (2.71 mg/ml), ADC16 (7.91 mg/ml), and ADC17 (5.61 mg/ml) prepared with phosphate-buffered saline (Dulbecco's PBS; pH 7.4), the molecular size was measured every 30 minutes with the elapse of time by dynamic light scattering measurement under storage conditions at 50°C for 48 hours, and a difference between the initial average molecular size and the average molecular size 48 hours after the initiation of the measurement was determined to evaluate the aggregation properties (n = 3).

Data set [5] concerns human T cell leukemia cell line Jurkat (CD138-negative). Nature of the data set: Cytotoxicity mediated by ADC, CellTiter-Glo 2.0 luminescent cell viability assay, Jurkat (Example 9). The data set is classed as cell-based. As for the experimental part:
(§1) The cytotoxicity of ADC15, ADC16, and ADC17 against the pancreatic cancer cell line BxPC-3 and the human T cell leukemia cell line Jurkat was evaluated by the CellTiter-Glo 2.0 luminescent cell viability assay (Promega). The BxPC-3 cells and the Jurkat cells were seeded at 350 cells/well and 150 cells/well, respectively, on a 384-well plate, ADC16 and ADC17 were added, and culture was performed at 37°C for 5 days. Thereafter, the reagent for CellTiter-Glo 2.0 luminescent cell viability assay was added. The relative luminescence was measured using the EnSpire Multimode Plate Reader (PerkinElmer), the data were analyzed using the 4 Parameter Logistic Model, and IC50 for each cancer cell line was determined. […] The antibody, the linker, and the payload of ADC16 are common with those of ADC17, although the number of drugs bound to an antibody molecule is different (ADC16: 3.78, ADC17: 7.91). ADC16 and ADC17 are considered to maintain the antigen-dependent cytotoxicity.

Data set [6] relates to pancreatic cancer cell line BxPC-3 (CD138-positive). Put plainly: Cytotoxicity mediated by ADC, CellTiter-Glo 2.0 luminescent cell viability assay, BxPC-3. The data set is classed as cell-based. To be noted: result in words. On the procedure: as §1
Background: ATP-based viability assays read luminescence as a measure of living cells.

B1: ADC12 (conjugate)
heavy: QVQLVQSGAEVKKPGSSVKVSCKASGYTFSNYWIEWVRQAPGQGLEWIGEILPGTGRTIYNEKFKGRATFTADISTSTAYMELSSLRSEDTAVYYCARRDYYGNFYYAMDYWGQGTLVTVSS[human IgG1 constant region not spelt out]
light: DIQMTQSPSSLSASVGDRVTITCSASQGINNYLNWYQQKPGKAPKLLIYYTSTLQSGVPSRFSGSGSGTDYTLTISSLQPEDFATYYCQQYSKLPRTFGGGTKVEIKRTVAAPSVFIFPPSDEQLKSGTASVVCLLNNFYPREAKVQWKVDNALQSGNSQESVTEQDSKDSTYSLSSTLTLSKADYEKHKVYACEVTHQGLSSPVTKSFNRGEC
Consider B1, for which the IC50 in data set [1] came to 4.028 µg/mL. Besides, the “tumor growth / anti-tumor effects” value in data set [2] was “equivalent anti-tumor effects”.

B2: ADC14 (conjugate)
heavy: QVQLVQSGAEVKKPGSSVKVSCKASGYTFSNYWIEWVRQAPGQGLEWIGEILPGTGRTIYNEKFKGRVTFTADESTSTAYMELSSLRSEDTAVYYCARRDYYGNFYYAMDYWGQGTLVTVSS[human IgG1 constant region not spelt out]
light: DIQMTQSPSSLSASVGDRVTITCSASQGINNYLNWYQQKPGKAPKLLIYYTSTLQSGVPSRFSGSGSGTDYTLTISSLQPEDFATYYCQQYSKLPRTFGGGTKVEIKRTVAAPSVFIFPPSDEQLKSGTASVVCLLNNFYPREAKVQWKVDNALQSGNSQESVTEQDSKDSTYSLSSTLTLSKADYEKHKVYACEVTHQGLSSPVTKSFNRGEC
B2 returned an IC50 in data set [1] of 4.761 µg/mL. Besides, the “tumor growth / anti-tumor effects” value in data set [2] is reported as “equivalent anti-tumor effects”.

B3: ADC13 (conjugate)
heavy: QVQLVQSGAEVKKPGSSVKVSCKASGYTFSNYWIEWVRQAPGQGLEWIGEILPGTGRTIYNEKFKGRVTFTADISTSTAYMELSSLRSEDTAVYYCARRDYYGNFYYAMDYWGQGTLVTVSS[human IgG1 constant region not spelt out]
light: DIQMTQSPSSLSASVGDRVTITCSASQGINNYLNWYQQKPGKAPKLLIYYTSTLQSGVPSRFSGSGSGTDYTLTISSLQPEDFATYYCQQYSKLPRTFGGGTKVEIKRTVAAPSVFIFPPSDEQLKSGTASVVCLLNNFYPREAKVQWKVDNALQSGNSQESVTEQDSKDSTYSLSSTLTLSKADYEKHKVYACEVTHQGLSSPVTKSFNRGEC
B3 yielded an IC50 in data set [1] of 4.377 µg/mL. Also, the “tumor growth / anti-tumor effects” value in data set [2] is recorded as “equivalent anti-tumor effects”.

B4: ADC9 (conjugate)
heavy: QVQLVQSGAEVKKPGSSVKVSCKASGYTFSNYWIEWVRQAPGQGLEWIGEILPGTGRTIYNEKFKGRVTFTADISTSTAYMELSSLRSEDTAVYYCARRDYYGNFYYAMDYWGQGTLVTVSSASTKGPSVFPLAPSSKSTSGGTAALGCLVKDYFPEPVTVSWNSGALTSGVHTFPAVLQSSGLYSLSSVVTVPSSSLGTQTYICNVNHKPSNTKVDKKV[human IgG1 Fc with changes not spelt out]
light: DIQMTQSPSSLSASVGDRVTITCSASQGINNYLNWYQQKPGKAPKLLIYYTSTLQSGVPSRFSGSGSGTDYTLTISSLQPEDFATYYCQQYSKLPRTFGGGTKVEIKRTVAAPSVFIFPPSDEQLKSGTASVVCLLNNFYPREAKVQWKVDNALQSGNSQESVTEQDSKDSTYSLSSTLTLSKADYEKHKVYACEVTHQGLSSPVTKSFNRGEC
Regarding B4, the IC50 in data set [1] was 3.26 µg/mL.

B5: ADC8 (conjugate)
heavy: QVQLVQSGAEVKKPGSSVKVSCKASGYTFSNYWIEWVRQAPGQGLEWIGEILPGTGRTIYNEKFKGRATFTADISTSTAYMELSSLRSEDTAVYYCARRDYYGNFYYAMDYWGQGTLVTVSSASTKGPSVFPLAPSSKSTSGGTAALGCLVKDYFPEPVTVSWNSGALTSGVHTFPAVLQSSGLYSLSSVVTVPSSSLGTQTYICNVNHKPSNTKVDKKV[human IgG1 Fc with changes not spelt out]
light: DIQMTQSPSSLSASVGDRVTITCSASQGINNYLNWYQQKPGKAPKLLIYYTSTLQSGVPSRFSGSGSGTDYTLTISSLQPEDFATYYCQQYSKLPRTFGGGTKVEIKRTVAAPSVFIFPPSDEQLKSGTASVVCLLNNFYPREAKVQWKVDNALQSGNSQESVTEQDSKDSTYSLSSTLTLSKADYEKHKVYACEVTHQGLSSPVTKSFNRGEC
Regarding B5, the IC50 in data set [1] was 3.124 µg/mL.

B6: ADC16 (conjugate)
heavy: QVQLVQSGAEVKKPGSSVKVSCKASGYTFSNYWIEWVRQAPGQGLEWIGEILPGTGRTIYNEKFKGRATFTADISTSTAYMELSSLRSEDTAVYYCARRDYYGNFYYAMDYWGQGTLVTVSS[human IgG1 constant region not spelt out]
light: DIQMTQSPSSLSASVGDRVTITCSASQGINNYLNWYQQKPGKAPKLLIYYTSTLQSGVPSRFSGSGSGTDYTLTISSLQPEDFATYYCQQYSKLPRTFGGGTKVEIKRTVAAPSVFIFPPSDEQLKSGTASVVCLLNNFYPREAKVQWKVDNALQSGNSQESVTEQDSKDSTYSLSSTLTLSKADYEKHKVYACEVTHQGLSSPVTKSFNRGEC
As to B6, in data set [3] (25°C to 95°C by 1°C every minute), the “Denaturation midpoint temperature Tm2” value came out at 84.0 °C. For the same molecule, the “Aggregation initiation temperature Tagg266” value in data set [3] (static light scatter at 266 nm) was found to be 75.3 °C. Further, the “Increase in average molecular size” value in data set [4] is listed as 5.7 nm. In data set [5] (Jurkat (CD138-negative), 37°C, 5 days), this molecule gave a half-inhibitory concentration (IC50) of over 8 µg/mL. For the same molecule, the “cytotoxicity against the CD138-negative Jurkat cells” value in data set [5] (result in words) is given as “did not exert the cytotoxicity”. Also, in data set [6], the “cytotoxicity against the CD138-positive BxPC-3 cells” value is recorded as “exerted the cytotoxicity”.

B7: ADC11 (conjugate)
heavy: QVQLVQSGAEVKKPGSSVKVSCKASGYTFSNYWIEWVRQAPGQGLEWIGEILPGTGRTIYNEKFKGRVTFTADESTSTAYMELSSLRSEDTAVYYCARRDYYGNFYYAMDYWGQGTLVTVSSASTKGPSVFPLAPSSKSTSGGTAALGCLVKDYFPEPVTVSWNSGALTSGVHTFPAVLQSSGLYSLSSVVTVPSSSLGTQTYICNVNHKPSNTKVDKKV[human IgG1 Fc with changes not spelt out]
light: DIQMTQSPSSLSASVGDRVTITCSASQGINNYLNWYQQKPGKAPKLLIYYTSTLQSGVPSRFSGSGSGTDYTLTISSLQPEDFATYYCQQYSKLPRTFGGGTKVEIKRTVAAPSVFIFPPSDEQLKSGTASVVCLLNNFYPREAKVQWKVDNALQSGNSQESVTEQDSKDSTYSLSSTLTLSKADYEKHKVYACEVTHQGLSSPVTKSFNRGEC
With B7, in data set [1], the IC50 was determined as 3.592 µg/mL.

B8: ADC10 (conjugate)
heavy: QVQLVQSGAEVKKPGSSVKVSCKASGYTFSNYWIEWVRQAPGQGLEWIGEILPGTGRTIYNEKFKGRATFTADESTSTAYMELSSLRSEDTAVYYCARRDYYGNFYYAMDYWGQGTLVTVSSASTKGPSVFPLAPSSKSTSGGTAALGCLVKDYFPEPVTVSWNSGALTSGVHTFPAVLQSSGLYSLSSVVTVPSSSLGTQTYICNVNHKPSNTKVDKKV[human IgG1 Fc with changes not spelt out]
light: DIQMTQSPSSLSASVGDRVTITCSASQGINNYLNWYQQKPGKAPKLLIYYTSTLQSGVPSRFSGSGSGTDYTLTISSLQPEDFATYYCQQYSKLPRTFGGGTKVEIKRTVAAPSVFIFPPSDEQLKSGTASVVCLLNNFYPREAKVQWKVDNALQSGNSQESVTEQDSKDSTYSLSSTLTLSKADYEKHKVYACEVTHQGLSSPVTKSFNRGEC
For the molecule B8, the IC50 in data set [1] turned out to be 3.674 µg/mL.

The term IC50 denotes the concentration at which inhibition is half-maximal. A low value points to higher potency.
